Experiments:
[1] = system: native activated HMG1 stimulated IL-6 release from human PBMCs; test: Inhibition of cytokine release from PBMCs, native activated HMG1; format: cell-based
Procedure: Inhibition of Cytokine Release: Human peripheral blood mononuclear cells (PBMCs) were isolated from the peripheral blood of healthy volunteers by a density gradient centrifugation. Freshly drawn heparinized whole blood was mixed with two volume of PBS. The diluted blood was gently layered on the surface of Histopaque-1077 (Sigma-Aldrich) and centrifuged at 400×g, at RT for 30 minute. PBMCs were collected from the interface between the plasma and the density gradient solution. After washing in PBS 3×, the purified PBMCs were resuspended in RPMI-1640 medium (GIBCO BRL) containing 100 U/ml penicillin, 100 μg/ml streptomycin and […] β-mercaptoethanol. 1×10^5 of cells was added in each well of 96-well cell culture plates. […]
The culture media were analyzed for inflammatory cytokines using Beadlyte human multi-cytokine flex kit from Upstate by Luminex 100 (Luminex Corp.). Proinflammatory cytokines TNF-α, IL-6, IL-1β and IL-12 (p40) were measured for cells stimulated with recombinant HMG1. In addition, TNF-α, IL-6, IL-1β and IL-8 were measured for cells stimulated with native activated HMG1.
Cytokine release data is presented as mean of triplicates±standard deviations. […] It was calculated by PRISM program.

HMGB-1 = biological target: T1, HMGB-1 (Homo sapiens, UniProt P09429); test: Antibody HMG1 binding competition via BIAcore analysis
T1 sequence (P09429 1-215): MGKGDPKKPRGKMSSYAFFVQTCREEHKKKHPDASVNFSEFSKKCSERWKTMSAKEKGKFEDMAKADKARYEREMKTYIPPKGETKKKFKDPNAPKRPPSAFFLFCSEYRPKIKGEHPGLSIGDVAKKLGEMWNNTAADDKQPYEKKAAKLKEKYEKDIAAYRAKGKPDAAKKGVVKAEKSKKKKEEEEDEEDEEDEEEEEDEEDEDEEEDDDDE
Procedure: Antibody HMG1 Binding Competition via BIAcore Analysis: All experiments were performed on a BIAcore 3000 instrument (BIAcore, Inc., Piscataway, N.J.). The HMGB-1 protein was immobilized onto a CM5 sensor using a standard amine coupling chemistry protocol, as described in the BIAcore Handbook (BIAcore, Inc., Piscataway, N.J.). Briefly, the CM5 surface subject to the NHS/EDC activation. After activation a HMGB-1 was injected over the surface at a concentration of 100 nM or 200 nM (in 10 mM NaOAc, pH4) to a surface density of between 1100 and 1200 RU's. Following this, unreacted sites on the sensor chip surface were “capped” with an injection of 1M ethanolamine. For reference purposes, a blank flow cell was also prepared, utilizing this same procedure that was used to immobilize HMGB-1, but without any ligand.
MAbs G2, G4, G9, S6 and Synagis were prepared at 1 uM and 2 uM. All mAb solutions were prepared in HBS-EP buffer (BIAcore, Inc., Piscataway, N.J.). Each cycle started with a 100 μL injection of the first mAb, injected at 1 μM, followed by a second 100 μL injection of a 1:1 mixture of two, 2× concentration mAbs, such that the final concentration of each component mAb in the mixture is equivalent to the first injection. […]
Once the entire set had been collected, the maximum RU responses for each mAb after each injection cycle was recorded. […]

[2] = system: mouse CLP model of sepsis; test: Cecal ligation and puncture (CLP) model of sepsis; format: in vivo
Procedure: Anti-HMGB1 in Sepsis: To establish live intra-abdominal infection and sepsis, Balb/C mice (9-11 per group) were subjected to the CLP procedure as described previously (Fink and Heard, 1990, J Surg Res 49:186-196; Wichmann et al., 1996, J Surg Res 65, 109-114). After anesthesia with an intramuscular injection of ketamine (75 mg/kg, Fort Dodge Laboratories, Fort Dodge, Iowa) and xylazine (20 mg/kg, Bochringer Ingelheim), a 15-mm midline incision was made to expose the cecum. After ligation 5.0 mm from the tip, the cecal stump was punctured once with a 22-gauge needle, and small amount of stool (1-mm length) was extruded. The cecum was placed back into its normal intra-abdominal position, and the wound was closed with two layers of running suture. All animals received saline-solution (0.9% s.c., 20 ml/kg of body weight) resuscitation, and a single dose of antibiotic (0.5 mg of imipenem per mouse in 200 μl of sterile saline injected s.c.) (Primaxin, Merck) 30 min after surgery.
Anti-HMG1 antibodies or isotype control antibodies (50 μg/mouse in a 200 μl volume), were administered intraperitoneally at 24 and 48 hours, post surgery. In certain follow up experiments anti-HMG1 antibodies or isotype control antibodies (8 mg/kg) were administered intraperitoneally at 24 hours, post surgery (FIG. 11C-D). […] The survival of the mice was monitored twice daily for a total of 14 days. […]

B1: S6: human anti-HMG1 antibody, ATCC PTA-6143; VL/VH aa SEQ ID NO: 9/11 (antibody, listed as Homo sapiens, V domains shown)
VH: EVQLLESGGGLVQPGGSLRLSCAASGFTFSWYDMSWVRQAPGKGLEWVSRISPSGGYTMYADSVKGRFTISRDNSKNTLYLQMNSLRAEDTAVYYCARLEVGATSGGTAFDIWGQGTMVTVSS
VL: [gap - about 100 residues]
With B1 the “block of IL-6 release induced by native activated HMG1” value [1] was “less effective”, the “binding sites on HMGB1 by BIAcore competition” value (HMGB-1) was “bind to either the same site or sites that are highly related perhaps overlapping” and the “protection in the CLP model” value ([2]; numerous experiments) was “at least 30%”. For the same molecule, the “in vivo CLP” value ([2]; percent protection, isotype control subtracted) was 35-50%.

Reference: patent US20080311122A1, “Antagonists of Hmgb1 and/or Rage and Methods of Use Thereof” (Medimmune, LLC, priority 2005, published 2008)
